In paper PMC10571751, “Polyarginine Cell-Penetrating Peptides Bind and Inhibit SERCA2” (Cells, 2023):
These are yes or no findings as the source states them, for the method shown. Some results given as binding are weak or reduced against the parent protein; the word gives no strength.

By UniProt entry, the sequences of proteins in these tests, tags left out. Residues count along the entry.
UniProt P16615, residues 111-253: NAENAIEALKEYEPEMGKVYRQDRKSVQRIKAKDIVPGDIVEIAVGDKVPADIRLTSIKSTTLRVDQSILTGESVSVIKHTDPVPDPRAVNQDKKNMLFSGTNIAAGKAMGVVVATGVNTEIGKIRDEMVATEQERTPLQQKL

B1: biotin-Arg11 (peptide)
peptide: RRRRRRRRRRR
modifications: biotin on the N-terminus
B2: biotin-Arg9 (peptide)
peptide: RRRRRRRRR
modifications: biotin on the N-terminus
B3: biotin-cargo(1-9) (peptide)
peptide: IEKELAQQY
modifications: biotin on the N-terminus
B4: biotin-cargo(8-18) (peptide)
peptide: QYQNADAITLE
modifications: biotin on the N-terminus
B5: biotin-cargo(1-11) (peptide)
peptide: IEKELAQQYQN
modifications: biotin on the N-terminus

Molecular target: T1, 12xHis-SERCA2(111-253) (UniProt P16615 111-253)
T1 construct: also called recombinant SERCA2 polypeptide containing the A-domain; actuator domain of SERCA2; source: recombinant, generated by Genscript; dialysed into Biacore running buffer for SPR
Experiment: ELISA; recombinant protein coated at 1 µg/well overnight at 4 °C, blocked with 0.5% gelatine; 50 µmol/L biotin-labelled peptide for 2 h at 37 °C; PBS-T washes; detected with anti-biotin-HRP, absorbance at 450 nm; both purified

| Binder | binding |
| --- | --- |
| B1 | binds |
| B2 | binds weakly |
| B3 | no binding (tested: 50 µmol/L) |
| B4 | no binding (tested: 50 µmol/L) |
| B5 | no binding (tested: 50 µmol/L) |
